This is one part of the list. Many values rest on one well or one pass, so single values are uncertain.
Legend:
Assay in all cases: cell count relative to DMSO control; melanoma cells; higher = more viable cells
Conditions in all cases: library dose: low library concentration; 72 h
MZ2-MEL = tested on: MZ2-MEL
MeWo = tested on: MeWo
RPMI7951 = tested on: RPMI7951
RVH-421 = tested on: RVH-421
SkMel28 = tested on: SkMel28
SkMel30 = tested on: SkMel30
SkMel5 = tested on: SkMel5
UACC257 = tested on: UACC257
UACC62 = tested on: UACC62
SkMel2 = tested on: SkMel2
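Also: cell number obtained by counting DAPI-stained nuclei in high-throughput microscope images with image analysis software, screen run in 1,536-well plates.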

Compound	cell count (MZ2-MEL)	cell count (MeWo)	cell count (RPMI7951)	cell count (RVH-421)	cell count (SkMel28)	cell count (SkMel30)	cell count (SkMel5)	cell count (UACC257)	cell count (UACC62)	cell count (SkMel2)
Cn1c(Nc2ccc(C(F)(F)F)cc2)nc2cc(Oc3ccnc(-c4ncc(C(F)(F)F)[nH]4)c3)ccc21 + Cn1cc(/C=C2\C(=O)Nc3cccnc32)c2ccccc21 [GW441756] (first compound 0.08 µM, partner dose 0.4 µM)	72.9%	73.8%	56.1%	63.4%	66.4%	43.4%	70.5%	43.9%	55.6%	
COCC[n+]1c2c(n(Cc3cnccn3)c1C)C(=O)c1ccccc1C2=O + COc1ccc(COc2ccc(Cc3cnc(N)nc3N)cc2OC)cc1 [GW2580] (first compound 0.0004 µM, partner dose 1 µM)	80.3%	90.5%	104%	106%	96.7%	87.1%	74.8%	83.3%	106%	
COCC[n+]1c2c(n(Cc3cnccn3)c1C)C(=O)c1ccccc1C2=O + Cc1cc([N+](=O)[O-])ccc1NS(=O)(=O)c1cc(Cl)ccc1Cl [FH535] (first compound 0.0004 µM, partner dose 1 µM)	51.9%	87.6%	95.7%	104%	87.9%	81.4%	77.3%	74%	78.6%	
O=C(CCCCCCC(=O)Nc1ccccc1)NO [vorinostat] + CCN(CC)CCCCNc1ncc2cc(-c3cc(OC)cc(OC)c3)c(NC(=O)NC(C)(C)C)nc2n1 [PD173074] (first compound 0.08 µM, partner dose 0.1 µM)	97.1%	99.4%	96.7%	98.6%	86.5%	124%	80.9%	107%	91.5%	
Cn1c(Nc2ccc(C(F)(F)F)cc2)nc2cc(Oc3ccnc(-c4ncc(C(F)(F)F)[nH]4)c3)ccc21 + Oc1cc(-c2nc(-c3ccccc3)[nH]c2-c2ccncc2)ccc1Cl [L779450] (first compound 0.08 µM, partner dose 0.2 µM)	72.7%	74.2%	58.6%	61.6%	45.9%	56.5%	71.2%	37%	45.7%	
O=C(CCCCCCC(=O)Nc1ccccc1)NO [vorinostat] + COc1ccc(COc2ccc(Cc3cnc(N)nc3N)cc2OC)cc1 [GW2580] (first compound 0.08 µM, partner dose 1 µM)	100%	106%	102%	94.6%	82.3%	128%	97%	86.2%	87%	
Nc1cccc2c1CN(C1CCC(=O)NC1=O)C2=O (configuration not stated) [lenalidomide] + Oc1nc(-c2ccc(C(F)(F)F)cc2)nc2c1CSCC2 [XAV939] (first compound 1 µM, partner dose 2 µM)	103%	104%	105%	87.4%	97.5%	112%	87.2%	69.8%	104%	
COCC[n+]1c2c(n(Cc3cnccn3)c1C)C(=O)c1ccccc1C2=O + O=C(Nc1ccccc1)c1cc([N+](=O)[O-])ccc1Cl [GW9662] (first compound 0.0004 µM, partner dose 2 µM)	62.3%	94%	79.9%	50.4%	103%	78.9%	81.6%	101%	95.3%	
C#Cc1cccc(Nc2ncnc3cc(OCCOC)c(OCCOC)cc23)c1 [erlotinib] + CCCCCCCCCCCC1=C(O)C(=O)C=C(O)C1=O [Embelin] (first compound 0.8 µM, partner dose 1.2 µM)	94.9%	82.9%	93.6%	108%	106%	124%	101%	70.9%	107%	
COCC[n+]1c2c(n(Cc3cnccn3)c1C)C(=O)c1ccccc1C2=O + Oc1cc(-c2nc(-c3ccccc3)[nH]c2-c2ccncc2)ccc1Cl [L779450] (first compound 0.0004 µM, partner dose 0.2 µM)	31.4%	90.1%	77.1%	84.5%	80.3%	121%	74.2%	89.3%	78.9%	
C#Cc1cccc(Nc2ncnc3cc(OCCOC)c(OCCOC)cc23)c1 [erlotinib] + Cn1cc(/C=C2\C(=O)Nc3cccnc32)c2ccccc21 [GW441756] (first compound 0.8 µM, partner dose 0.4 µM)	88%	91.6%	92.2%	99.1%	86%	97.9%	84.2%	80%	94.7%	
O=C(CCCCCCC(=O)Nc1ccccc1)NO [vorinostat] + Cn1cc(/C=C2\C(=O)Nc3cccnc32)c2ccccc21 [GW441756] (first compound 0.08 µM, partner dose 0.4 µM)	101%	102%	95.8%	144%	84.7%	108%	87.5%	94.3%	91.2%	
C#Cc1cccc(Nc2ncnc3cc(OCCOC)c(OCCOC)cc23)c1 [erlotinib] + Nc1cccc2c1CN(C1CCC(=O)NC1=O)C2=O [lenalidomide] (first compound 0.8 µM, partner dose 1 µM)	99.4%	93.4%	89%	88.4%	88.7%	77.8%			87.7%	
Nc1cccc2c1CN(C1CCC(=O)NC1=O)C2=O (configuration not stated) [lenalidomide] + CCc1ccc(CCOc2ccc(CC3SC(=O)NC3=O)cc2)nc1 [pioglitazone] (first compound 1 µM, partner dose 2 µM)	100%	98.7%	107%	99.7%	95.5%	94%	80.5%	82.9%	94.3%	
Nc1cccc2c1CN(C1CCC(=O)NC1=O)C2=O (configuration not stated) [lenalidomide] + CC(C)CCN1c2nc(Nc3cc(F)c(O)c(F)c3)ncc2N(C)C(=O)C1C [BID1870] (first compound 1 µM, partner dose 0.2 µM)	104%	82%	130%	99.1%	86.6%	108%	100%	100%	86.2%	
C#Cc1cccc(Nc2ncnc3cc(OCCOC)c(OCCOC)cc23)c1 [erlotinib] + COc1cc(N2CCC(N3CCN(C)CC3)CC2)ccc1Nc1ncc(Cl)c(Nc2ccccc2S(=O)(=O)C(C)C)n1 [NVP-TAE684] (first compound 0.8 µM, partner dose 0.08 µM)	95.3%	77.8%	109%	97.3%	82.2%	82.3%	90.1%	79.2%	89.8%	
Nc1cccc2c1CN(C1CCC(=O)NC1=O)C2=O (configuration not stated) [lenalidomide] + CCN(CC)CCCCNc1ncc2cc(-c3cc(OC)cc(OC)c3)c(NC(=O)NC(C)(C)C)nc2n1 [PD173074] (first compound 1 µM, partner dose 0.1 µM)	101%	106%	106%	134%	89.5%	98.4%	98.5%	99.8%	105%	
Cn1c(Nc2ccc(C(F)(F)F)cc2)nc2cc(Oc3ccnc(-c4ncc(C(F)(F)F)[nH]4)c3)ccc21 + COc1cc(N2CCC(N3CCN(C)CC3)CC2)ccc1Nc1ncc(Cl)c(Nc2ccccc2S(=O)(=O)C(C)C)n1 [NVP-TAE684] (first compound 0.08 µM, partner dose 0.08 µM)	85%	56.3%	77.8%	69.9%	63.4%	47.8%	72.3%	25.4%	49.3%	
O=C(CCCCCCC(=O)Nc1ccccc1)NO [vorinostat] + OCCn1cc(-c2cnc3nnn(Cc4ccc5ncccc5c4)c3n2)cn1 [PF04217903] (first compound 0.08 µM, partner dose 1 µM)		93.3%	104%	88.3%	78%	101%	88.7%	67%	86.5%	105%
Nc1cccc2c1CN(C1CCC(=O)NC1=O)C2=O (configuration not stated) [lenalidomide] + COC(=O)c1sccc1S(=O)(=O)Nc1ccc(Nc2ccccc2)cc1OC [GSK0660] (first compound 1 µM, partner dose 1 µM)	97%	91.8%	102%	105%	79%	120%	80.4%	85.3%	84.4%	
OCc1c[nH]c2ccccc12 [Indole-3-carbinol] + NCC(=O)Nc1ccc(-n2nc(C(F)(F)F)cc2-c2ccc3c(ccc4ccccc43)c2)cc1 [OSU03012] (first compound 0.8 µM, partner dose 1 µM)		58.3%	94.1%	89.9%	75.3%	50.9%	82.6%	68%	79.1%	
C#Cc1cccc(Nc2ncnc3cc(OCCOC)c(OCCOC)cc23)c1 [erlotinib] + COc1ccc(Cl)c(Nc2nc3ccccc3nc2NS(=O)(=O)c2cccc(NC(=O)C(C)(C)N)c2)c1 [XL147] (first compound 0.8 µM, partner dose 0.8 µM)		79.5%	82.2%	86.8%	70.5%	102%			82.4%	
